{"source": "the supplement of paper PMC8728848", "binders": {"B1": {"name": "SEX4 (Arabidopsis thaliana), Q944A8 (protein)", "chain": "TQAMGAVLTYRHELGMNYNFIRPDLIVGSCLQTPEDVDKLRKIGVKTIFCLQQDPDLEYFGVDISSIQAYAKKYSDIQHIRCEIRDFDAFDLRMRLPAVVGTLYKAVKRNGGVTYVHCTAGMGRAPAVALTYMFWVQGYKLMEAHKLLMSKRSCFPKLDAIRNATIDILTGLKRKTVTLTLKDKGFSRVEISGLDIGWGQRIPLTLGKGTGFWILKRELPEGQFEYKYIIDGEWTHNEAEPFIGPNKDGHTNNYAKVVDDPTSVDGTTRERLSSEDPELLEEERSKLIQFLETCSEAEV"}}, "assay_in_all_cases": "glycan array binding signal (z-score within array); higher = stronger binding", "conditions_in_all_cases": "glycan notation: IUPAC condensed, linker removed", "key": {"Glc(b1-6)Glc": {"target": "Glc(b1-6)Glc", "procedure,_shortened": "(§1)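 The binding signal is a Z-score computed within each array and averaged over linkers. Arrays of the same protein sequence at different concentrations or buffers were also averaged together. Data originate from 3228 arrays in the Consortium for Functional Glycomics database, kept only where the protein sequence was available.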"}, "GlcA(b1-3)Gal": {"target": "GlcA(b1-3)Gal", "procedure,_shortened": "as §1"}, "GlcA(b1-3)GlcNAc": {"target": "GlcA(b1-3)GlcNAc", "procedure,_shortened": "as §1"}, "GlcA(b1-6)Gal": {"target": "GlcA(b1-6)Gal", "procedure,_shortened": "as §1"}, "[1]": {"target": "GlcNAc(a1-3)Gal(b1-4)GlcNAc", "procedure,_shortened": "as §1"}, "[2]": {"target": "GlcNAc(a1-4)Gal(b1-3)GlcNAc", "procedure,_shortened": "as §1"}, "[3]": {"target": "GlcNAc(a1-4)Gal(b1-4)GalNAc", "procedure,_shortened": "as §1"}, "[4]": {"target": "GlcNAc(a1-4)Gal(b1-4)GlcNAc", "procedure,_shortened": "as §1"}, "[5]": {"target": "GlcNAc(a1-4)Gal(b1-4)GlcNAc(b1-3)Gal(b1-4)Glc", "procedure,_shortened": "as §1"}, "[6]": {"target": "GlcNAc(a1-4)Gal(b1-4)GlcNAc(b1-3)Gal(b1-4)GlcNAc", "procedure,_shortened": "as §1"}, "[7]": {"target": "GlcNAc(a1-4)Gal(b1-4)GlcNAc(b1-3)Gal(b1-4)GlcNAc(b1-3)Gal(b1-4)GlcNAc", "procedure,_shortened": "as §1"}, "[8]": {"target": "GlcNAc(a1-4)Gal(b1-4)GlcNAc(b1-3)Gal(b1-4)[Fuc(a1-3)]GlcNAc(b1-3)Gal(b1-4)[Fuc(a1-3)]GlcNAc", "procedure,_shortened": "as §1"}, "[9]": {"target": "GlcNAc(a1-6)Gal(b1-4)GlcNAc", "procedure,_shortened": "as §1"}, "[10]": {"target": "GlcNAc(b1-2)Gal(b1-3)GalNAc", "procedure,_shortened": "as §1"}, "[11]": {"target": "GlcNAc(b1-2)Man(a1-3)[GlcNAc(b1-2)Man(a1-6)]Man(b1-4)GlcNAc(b1-4)GlcNAc", "procedure,_shortened": "as §1"}, "[12]": {"target": "GlcNAc(b1-2)Man(a1-3)[GlcNAc(b1-2)Man(a1-6)]Man(b1-4)GlcNAc(b1-4)[Fuc(a1-6)]GlcNAc", "procedure,_shortened": "as §1"}, "[13]": {"target": "GlcNAc(b1-2)Man(a1-3)[GlcNAc(b1-4)][GlcNAc(b1-2)Man(a1-6)]Man(b1-4)GlcNAc(b1-4)GlcNAc", "procedure,_shortened": "as §1"}, "[14]": {"target": "GlcNAc(b1-2)[GlcNAc(b1-4)]Man(a1-3)[GlcNAc(b1-2)Man(a1-6)]Man(b1-4)GlcNAc(b1-4)GlcNAc", "procedure,_shortened": "as §1"}, "[15]": {"target": "GlcNAc(b1-2)[GlcNAc(b1-4)]Man(a1-3)[GlcNAc(b1-4)][GlcNAc(b1-2)Man(a1-6)]Man(b1-4)GlcNAc(b1-4)GlcNAc", "procedure,_shortened": "as §1"}, "[16]": {"target": "GlcNAc(b1-2)[GlcNAc(b1-4)]Man(a1-3)[GlcNAc(b1-4)][GlcNAc(b1-2)[GlcNAc(b1-6)]Man(a1-6)]Man(b1-4)GlcNAc(b1-4)GlcNAc", "procedure,_shortened": "as §1"}, "[17]": {"target": "GlcNAc(b1-2)[GlcNAc(b1-6)]Man(a1-6)[GlcNAc(b1-2)Man(a1-3)]Man(b1-4)GlcNAc(b1-4)GlcNAc", "procedure,_shortened": "as §1"}, "[18]": {"target": "GlcNAc(b1-2)[GlcNAc(b1-6)]Man(a1-6)[GlcNAc(b1-2)Man(a1-3)][GlcNAc(b1-4)]Man(b1-4)GlcNAc(b1-4)GlcNAc", "procedure,_shortened": "as §1"}, "GlcNAc(b1-3)Gal": {"target": "GlcNAc(b1-3)Gal", "procedure,_shortened": "as §1"}, "[19]": {"target": "GlcNAc(b1-3)Gal(b1-3)GalNAc", "procedure,_shortened": "as §1"}, "GlcNAc(b1-3)Gal(b1-4)Glc": {"target": "GlcNAc(b1-3)Gal(b1-4)Glc", "procedure,_shortened": "as §1"}, "[20]": {"target": "GlcNAc(b1-3)Gal(b1-4)GlcNAc", "procedure,_shortened": "as §1"}, "[21]": {"target": "GlcNAc(b1-3)Gal(b1-4)GlcNAc(b1-3)Gal(b1-4)GlcNAc", "procedure,_shortened": "as §1"}, "GlcNAc(b1-3)GalNAc": {"target": "GlcNAc(b1-3)GalNAc", "procedure,_shortened": "as §1"}, "GlcNAc(b1-3)Man": {"target": "GlcNAc(b1-3)Man", "procedure,_shortened": "as §1"}, "[22]": {"target": "GlcNAc(b1-3)[GlcNAc(b1-4)][GlcNAc(b1-6)]GlcNAc", "procedure,_shortened": "as §1"}, "[23]": {"target": "GlcNAc(b1-3)[GlcNAc(b1-6)]Gal(b1-4)GlcNAc", "procedure,_shortened": "as §1"}, "[24]": {"target": "GlcNAc(b1-3)[GlcNAc(b1-6)]GalNAc", "procedure,_shortened": "as §1"}, "[25]": {"target": "GlcNAc(b1-4)Gal(b1-4)GlcNAc", "procedure,_shortened": "as §1"}, "GlcNAc(b1-4)GlcNAc": {"target": "GlcNAc(b1-4)GlcNAc", "procedure,_shortened": "as §1"}, "[26]": {"target": "GlcNAc(b1-4)GlcNAc(b1-4)GlcNAc", "procedure,_shortened": "as §1"}, "[27]": {"target": "GlcNAc(b1-4)GlcNAc(b1-4)GlcNAc(b1-4)GlcNAc(b1-4)GlcNAc", "procedure,_shortened": "as §1"}, "[28]": {"target": "GlcNAc(b1-4)GlcNAc(b1-4)GlcNAc(b1-4)GlcNAc(b1-4)GlcNAc(b1-4)GlcNAc", "procedure,_shortened": "as §1"}, "[29]": {"target": "GlcNAc(b1-4)[GlcNAc(b1-6)]GalNAc", "procedure,_shortened": "as §1"}}, "note": "The list shows a part of the results.", "data": [{"binder": "B1", "values": [{"measurement": "glycan array binding signal (z-score)", "setting": "Glc(b1-6)Glc", "result": -0.555}, {"measurement": "glycan array binding signal (z-score)", "setting": "GlcA(b1-3)Gal", "result": -0.449}, {"measurement": "glycan array binding signal (z-score)", "setting": "GlcA(b1-3)GlcNAc", "result": 16}, {"measurement": "glycan array binding signal (z-score)", "setting": "GlcA(b1-6)Gal", "result": -0.508}, {"measurement": "glycan array binding signal (z-score)", "setting": "[1]", "result": -0.508}, {"measurement": "glycan array binding signal (z-score)", "setting": "[2]", "result": -0.428}, {"measurement": "glycan array binding signal (z-score)", "setting": "[3]", "result": -0.28}, {"measurement": "glycan array binding signal (z-score)", "setting": "[4]", "result": -0.308}, {"measurement": "glycan array binding signal (z-score)", "setting": "[5]", "result": -0.299}, {"measurement": "glycan array binding signal (z-score)", "setting": "[6]", "result": -0.392}, {"measurement": "glycan array binding signal (z-score)", "setting": "[7]", "result": -0.144}, {"measurement": "glycan array binding signal (z-score)", "setting": "[8]", "result": 1.26}, {"measurement": "glycan array binding signal (z-score)", "setting": "[9]", "result": -0.576}, {"measurement": "glycan array binding signal (z-score)", "setting": "[10]", "result": -0.6}, {"measurement": "glycan array binding signal (z-score)", "setting": "[11]", "result": -0.02}, {"measurement": "glycan array binding signal (z-score)", "setting": "[12]", "result": 3.1}, {"measurement": "glycan array binding signal (z-score)", "setting": "[13]", "result": 0.722}, {"measurement": "glycan array binding signal (z-score)", "setting": "[14]", "result": -0.234}, {"measurement": "glycan array binding signal (z-score)", "setting": "[15]", "result": 0.008}, {"measurement": "glycan array binding signal (z-score)", "setting": "[16]", "result": -0.164}, {"measurement": "glycan array binding signal (z-score)", "setting": "[17]", "result": -0.387}, {"measurement": "glycan array binding signal (z-score)", "setting": "[18]", "result": -0.06}, {"measurement": "glycan array binding signal (z-score)", "setting": "GlcNAc(b1-3)Gal", "result": -0.595}, {"measurement": "glycan array binding signal (z-score)", "setting": "[19]", "result": -0.173}, {"measurement": "glycan array binding signal (z-score)", "setting": "GlcNAc(b1-3)Gal(b1-4)Glc", "result": -0.216}, {"measurement": "glycan array binding signal (z-score)", "setting": "[20]", "result": -0.48}, {"measurement": "glycan array binding signal (z-score)", "setting": "[21]", "result": -0.42}, {"measurement": "glycan array binding signal (z-score)", "setting": "GlcNAc(b1-3)GalNAc", "result": -0.489}, {"measurement": "glycan array binding signal (z-score)", "setting": "GlcNAc(b1-3)Man", "result": -0.575}, {"measurement": "glycan array binding signal (z-score)", "setting": "[22]", "result": -0.453}, {"measurement": "glycan array binding signal (z-score)", "setting": "[23]", "result": -0.547}, {"measurement": "glycan array binding signal (z-score)", "setting": "[24]", "result": -0.35}, {"measurement": "glycan array binding signal (z-score)", "setting": "[25]", "result": -0.575}, {"measurement": "glycan array binding signal (z-score)", "setting": "GlcNAc(b1-4)GlcNAc", "result": -0.146}, {"measurement": "glycan array binding signal (z-score)", "setting": "[26]", "result": -0.388}, {"measurement": "glycan array binding signal (z-score)", "setting": "[27]", "result": -0.427}, {"measurement": "glycan array binding signal (z-score)", "setting": "[28]", "result": -0.533}, {"measurement": "glycan array binding signal (z-score)", "setting": "[29]", "result": -0.489}]}]}
